Assay results taken from patent US7897730B2, “TRAIL receptor-binding agents and uses of the same” (Beijing Cotimes Biotech Ltd., priority 2006, dated 2011).

Experiments:
[1] = biological target: T1, TRAIL-R3-Fc fusion antigen (Homo sapiens, UniProt O14798); experiment: ELISA binding specificity to TRAIL receptors; conditions: purified antibody at various concentrations; plate coated at 1 μg/ml
T1 construct: a panel of soluble forms of TRAIL receptors as antigen
Method: (§1) In order to obtain a monoclonal antibody that binds TRAIL-R1 and TRAIL-R2 but not other TRAIL-receptors such as TRAIL-R3 and TRAIL-R4, ELISA plate is coated with the following recombinant proteins: 1. TRAIL-R1 and TRAIL-R2 hetero-dimer antigen, 2. TRAIL-R1-Fc fusion antigen, 3) TRAIL-R2-Fc fusion antigen, 4. TRAIL-R3-Fc fusion antigen 5. TRAIL-R4-Fc fusion antigen, and BSA as negative control. After incubation with various concentrations of purified antibody, HRP-conjugated goat anti-mouse IgG is added. After TMB substrate reaction, the optical density is recorded in a ELISA plate reader. The optical density values are used to estimate the binding of an antibody to the corresponding antigens.
(§2) ELISA plate was coated with the following recombinant proteins at 1 μg/ml in PBS at 4° C. overnight: 1. TRAIL-R1 and TRAIL-R2 hetero-dimer antigen, 2. TRAIL-R1-Fc fusion antigen, 3. TRAIL-R2-Fc fusion antigen, 4. TRAIL-R3-Fc fusion antigen, 5. TRAIL-R4-Fc fusion antigen, or BSA as negative control. After washing three times with PBS, the plate was blocked with 3% BSA PBS at room temperature for one hour. […] After washing three times with PBS, HRP-conjugated anti-mouse IgG antibody was then added for 30 minutes. After washing three times with PBS, TMB substrate buffer was added for 10 minutes and then the reaction was stopped by adding 2N H2SO4. The values of optical density were recorded in a ELISA plate reader with a dual wavelength at 450 nm/650 nm.
(§3) ELISA plate was coated with the following recombinant proteins at 1 μg/ml in PBS at 4° C. overnight: 1. TRAIL-R1 and TRAIL-R2 hetero-dinner antigen, 2. TRAIL-R1-Fc fusion antigen, 3. TRAIL-R2-Fc fusion antigen, 4. TRAIL-R3-Fc fusion antigen, 5. TRAIL-R4-Fc fusion antigen, or BSA as negative control. After washing three times with PBS, the plate was blocked with 3% BSA PBS at room temperature for one hour. The plate was incubated with various concentrations of purified the chimeric or the parental murine antibodies at 37° C. for one hour. The unbound antibodies were removed by washing three time with PBS, and then HRP-conjugated goat anti-mouse IgG1 for murine antibodies or HRP-conjugated goat anti-human kappa for human chimeric antibodies was added at 37° C. for 30 minutes. After washing three times with PBS, TMB substrate buffer was added for 10 minutes and then the reaction was stopped by adding 2N H2SO4. The values of optical density were recorded in a ELISA plate reader with a dual wavelength at 450 nm/650 nm.

[2] = biological target: T2, TRAIL-R4-Fc fusion antigen (Homo sapiens, UniProt Q9UBN6); experiment: ELISA binding specificity to TRAIL receptors; conditions: purified antibody at various concentrations; plate coated at 1 μg/ml
T2 construct: a panel of soluble forms of TRAIL receptors as antigen
Method: as §1, §2, §3

[3] = biological target: BSA (Bos taurus, UniProt P02769); experiment: ELISA binding specificity, negative control; conditions: purified antibody at various concentrations
Method: as §1
ELISA plate was coated with the following recombinant proteins at 1 μg/ml in PBS at 4° C. overnight: 1. TRAIL-R1 and TRAIL-R2 hetero-dimer antigen, 2. TRAIL-R1-Fc fusion antigen, 3. TRAIL-R2-Fc fusion antigen, 4. TRAIL-R3-Fc fusion antigen, 5. TRAIL-R4-Fc fusion antigen, or BSA as negative control. […] The values of optical density were recorded in a ELISA plate reader with a dual wavelength at 450 nm/650 nm.
ELISA plate was coated with the following recombinant proteins at 1 μg/ml in PBS at 4° C. overnight: 1. […] The values of optical density were recorded in a ELISA plate reader with a dual wavelength at 450 nm/650 nm.

[4] = test system: Colo205 (Human Colorectal Cancer); experiment: ATPLite cell viability / IC50; format: cell-based; conditions: overnight culture, MEAN±SD of triplicated cultures
Method: (§4) After culture at 37° C. overnight, cell viability was determined using the ATPLite kit according to the manufacturer's instructions (Packard Instruments, Meriden, Conn.): add 50 μl of cell lysis buffer and then 50 μl of substrate buffer. The reaction was counted in a luminescent reader. Cell viability was calculated as (cpm of treated cells/emp of control cells)×100%.
(§5) Cell viability was determined by ATPLite assay at the end of each time point. […] Viable cells of both cell lines were reduced below 50% at 4 h after treatment, and 5% at 24 h after treatment (FIG. 4).
(§6) ATPLite assay was used to determine cell viability and IC50 of each antibody. 1,000 target cells per well were cultured in 96-well plates in the presence of seven concentrations of 10-fold diluted chimeric antibody or their correspondent parental murine antibody with the highest concentration at 1000 ng/ml and the lowest concentration at 0.01 ng/11 After culture at 37° C. overnight cell viability was determined using the ATPLite kit according to the manufacturer's instructions (Packard Instruments, Meriden, Conn.): add 50 μl of cell lysis buffer and then 50 μl of substrate buffer. The reaction was counted in a luminescent reader. Cell viability was calculated as (cpm of treated cells/cmp of control cells)×100%. A dose-dependent killing curve is generated. The IC50 was calculated by linear regression. […]

[5] = test system: MDA231 (Human Breast Cancer); experiment: ATPLite cell viability / IC50; format: cell-based; conditions: overnight culture, MEAN±SD of triplicated cultures
Method: as §4, §5, §6

[6] = test system: Carov 3 (Human Ovarian Cancer); experiment: ATPLite cell viability / IC50; format: cell-based; conditions: overnight culture, MEAN±SD of triplicated cultures
Method: (§7) ATPLite assay was used to determine cell viability and IC50 of each antibody. 1,000 target cells per well were cultured in 96-well plates in the presence of seven concentrations of 10-fold diluted chimeric antibody or their correspondent parental murine antibody with the highest concentration at 1000 ng/ml and the lowest concentration at 0.01 ng/11 After culture at 37° C. overnight cell viability was determined using the ATPLite kit according to the manufacturer's instructions (Packard Instruments, Meriden, Conn.): add 50 μl of cell lysis buffer and then 50 μl of substrate buffer. The reaction was counted in a luminescent reader. Cell viability was calculated as (cpm of treated cells/cmp of control cells)×100%. A dose-dependent killing curve is generated. The IC50 was calculated by linear regression. The results are presented as MEAN±SD of triplicated cultures.

[7] = test system: Du145 (Human Prostate Cancer); experiment: ATPLite cell viability / IC50; format: cell-based; conditions: overnight culture, MEAN±SD of triplicated cultures
Method: as §7

[8] = test system: H-2122 (Human Lung Cancer); experiment: ATPLite cell viability / IC50; format: cell-based; conditions: overnight culture, MEAN±SD of triplicated cultures
Method: as §7

[9] = test system: MIAcap (Human Pancreatic Cancer); experiment: ATPLite cell viability / IC50; format: cell-based; conditions: overnight culture, MEAN±SD of triplicated cultures
Method: as §7

Chain of BSA (P02769 25-607): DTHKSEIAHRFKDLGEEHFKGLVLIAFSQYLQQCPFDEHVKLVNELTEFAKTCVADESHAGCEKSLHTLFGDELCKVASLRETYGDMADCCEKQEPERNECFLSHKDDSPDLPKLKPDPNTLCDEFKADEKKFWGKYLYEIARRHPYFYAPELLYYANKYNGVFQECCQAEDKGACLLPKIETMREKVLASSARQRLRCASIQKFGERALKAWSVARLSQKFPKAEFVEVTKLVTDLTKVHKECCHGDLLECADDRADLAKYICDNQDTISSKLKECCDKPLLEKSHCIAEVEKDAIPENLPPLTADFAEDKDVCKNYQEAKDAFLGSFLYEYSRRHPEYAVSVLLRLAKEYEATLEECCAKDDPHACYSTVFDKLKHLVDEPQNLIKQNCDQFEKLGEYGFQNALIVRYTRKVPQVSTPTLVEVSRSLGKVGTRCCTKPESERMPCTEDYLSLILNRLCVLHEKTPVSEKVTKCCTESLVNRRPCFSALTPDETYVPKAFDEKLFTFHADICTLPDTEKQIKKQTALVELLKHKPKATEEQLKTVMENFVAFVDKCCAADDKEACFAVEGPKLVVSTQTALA
T2 sequence (Q9UBN6 56-211 limits assumed, other chains not shown): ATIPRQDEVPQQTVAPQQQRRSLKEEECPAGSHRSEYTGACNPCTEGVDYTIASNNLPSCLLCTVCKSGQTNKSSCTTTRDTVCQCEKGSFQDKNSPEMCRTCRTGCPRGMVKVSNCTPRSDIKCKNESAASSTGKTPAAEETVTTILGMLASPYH
T1 sequence (O14798 26-236 limits assumed, other chains not shown): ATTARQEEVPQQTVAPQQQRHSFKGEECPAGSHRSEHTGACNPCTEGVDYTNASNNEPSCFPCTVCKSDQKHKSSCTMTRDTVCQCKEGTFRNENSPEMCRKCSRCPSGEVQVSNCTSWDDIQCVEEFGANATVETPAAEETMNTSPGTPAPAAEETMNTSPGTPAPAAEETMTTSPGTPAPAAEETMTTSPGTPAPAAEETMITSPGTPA

Row | binding in ELISA [1] | binding in ELISA [2] | binding in ELISA [3] | IC50 [4] [µg/mL] | IC50 [5] [µg/mL] | IC50 [6] [µg/mL] | IC50 [7] [µg/mL] | IC50 [8] [µg/mL] | IC50 [9] [µg/mL] | Molecule
1 | does not react | does not react | does not react | 0.0066 ± 0.0013 | 0.0042 ± 0.0012 | 0.0225 ± 0.0015 | 0.0398 ± 0.0042 | 0.0291 ± 0.0025 | 0.0125 ± 0.0021 | chimeric CTB003: Humanized chimeric monoclonal antibody directed to a common epitope shared by TRAIL-R1 and TRAIL-R2 polypeptides (protein) light: DIQMTQSSSSFSVSLGDRVTITCKASEDIYNRLAWYQQKPGNAPRLLISGATSLETGVPSRFSGSGSGKDYTLSITSLQTEDVATYYCQQYWSTPLTFGAGTKLELKRAVAAPSVDIFPPSDEQLKSGTASVVCLLNNFYPREAKVQWKVDNALQSGNSQESVTEQDSKDSTYSLSSTLTLSKADYEKHKVYACEVTHQGLSSPVTKSFNRGEC heavy: EVHLVESGGGLVRPGGSLKLSCAASGFAFSSYDMSWVRQTPEKRLEWVAYISDGGGITYYPDTMKGRFTISRDNAKNTLSLQMSSLKSEDTAMYYCARHITMVVGPFAYWGQGTLVTVSAASTKGPSVFPLAPCSRSTSGGTAALGCLVKDYFPEPVTVSWNSGALTSGVHTFPAVLQSSGLYSLSSVVTVPSSSLGTQTYICNVNHKPSNTKVDKRV[human IgG1 Fc with A327G V412M (EU numbers) omitted here]
2 | does not react | does not react | does not react |  |  |  |  |  |  | chimeric CTB006: Monospecific humanized chimeric monoclonal antibody directed to TRAIL-R2 receptor (protein) light: DIVMTQSHKFMSTSVGDRVSITCKASQDVSTAVAWYQQKPGQSPRLLIYWASTRHTGVPDRFTGSGSGTDYTLTISSVQAEDQALYYCQQHYRTPWTFGGGTKLEIKRAVAAPSVDIFPPSDEQLKSGTASVVCLLNNFYPREAKVQWKVDNALQSGNSQESVTEQDSKDSTYSLSSTLTLSKADYEKHKVYACEVTHQGLSSPVTKSFNRGEC heavy: EVQLQQSGPELVKPGASVRMSCKASGYTFTSYFIHWVKQRPGQGLEWIGWIYPGNVNTKYSEKFKGKATLTADKSSSTAYMQFSSLTSEDSAVYFCARGEAGYFDYWGQGTTLTVSSASTKGPSVFPLAPCSRSTSGGTAALGCLVKDYFPEPVTVSWNSGALTSGVHTFPAVLQSSGLYSLSSVVTVPSSSLGTQTYICNVNHKPSNTKVDKRV[human IgG1 Fc with A327G V412M (EU numbers) omitted here]
